The list shows a part of the results.
What follows are molecules tested on T1, C. trachomatis L2/434/Bu expressing GFP (CTL2-GFP). Settings: total inclusion area; 28.5 h, 10 µM; inhibitor.
T1 construct: L2/434/Bu GFP intracellular growth in HeLa cells
Design: species or system HeLa; C. trachomatis total inclusion area by high-content imaging, normalised to DMSO
Procedure, shortened: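 Imaging read-out: GFP inclusions and Hoechst nuclei captured by high-content imaging after fixation. Inclusion area/number = chlamydial growth; nuclei count = host cell viability. MIC calculated per earlier method.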
In the case of `CC(C)NC(=O)N1CCC[C@@H](O)[C@H](NC(=O)c2ccc(OCc3ccccc3)cc2)C1` [CBK289063], the “% of control remaining” value is reported as 107.273. For `COc1ccc(-c2ccccc2)cc1NS(=O)(=O)c1ccc2c(c1)CCC(=O)N2` [CBK286368], the “% of control remaining” value was 108.051. In the case of `C/C(=N/O)c1ccc(OCCCOc2ccc(/C(C)=N/O)cc2)cc1` [CBK262075], the “% of control remaining” value is reported as 88.5286. In the case of `Cc1csc(NC(=O)c2cccc(S(=O)(=O)NCC3CCCO3)c2)n1` (stereo not shown) [CBK305017], the “% of control remaining” value is reported as 97.9698. In the case of `COc1cc(NC(=O)N2CCCCC2CO)cc(OC)c1OC` (stereo not shown) [CBK155986], the “% of control remaining” value is reported as 87.6834. With `CCN(CC)C(=O)c1sc2ccccc2c1Cl` [CBK067853] the “% of control remaining” value was 35.0872. With `CN(CC(=O)N1CCC(Cc2ccccc2)CC1)S(=O)(=O)c1ccc2ccccc2c1` [CBK266931] the “% of control remaining” value was 111.083. In the case of `Cc1csc(NC(=O)CSc2nnc3[nH]c(=O)cc(C)n23)n1` [CBK294413], the “% of control remaining” value is reported as 87.5341. With `O=C(Cc1c[nH]cn1)N1CCCC2(CCN(C(=O)c3cc(F)c(F)cc3F)C2)C1` (stereo not shown) [CBK137072] the “% of control remaining” value was 73.9339. For `O=C1NC(=O)C(CCCCN2CCC[C@@H]2CN2CCCC2)N1` (stereo partly shown) [CBK149110], the “% of control remaining” value was 96.6676. In the case of `CC(C)C(=O)Nc1ccc2c(-c3ccc4c(c3)CCO4)ccnc2n1` [CBK073672], the “% of control remaining” value is reported as 123.086. For `O=C(O)CCNC1CC(=O)N(Cc2ccccc2)C1=O` (stereo not shown) [CBK287246], the “% of control remaining” value was 85.0763. `O=C(O)C1Cc2c([nH]c3ccccc23)C(c2cc(Br)ccc2O)N1` (stereo not shown) [CBK260946] was tested, and the “% of control remaining” value was 102.346. In the case of `O=C1COc2ccccc2C/C=C/CC2(CCN(C(=O)c3cnccn3)CC2)C(=O)NCCN1` [CBK291997], the “% of control remaining” value is reported as 140.861. With `O=C(Cn1ccnc1)Nc1nc(-c2ccccc2F)cs1` [CBK281409] the “% of control remaining” value was 74.5556. With `Cc1ccc(C(=O)NC(C)c2nnc(SCC(=O)c3ccc(Br)cc3)n2C)cc1` (stereo not shown) [CBK266183] the “% of control remaining” value was 96.7666. In the case of `CC(=O)Nc1ccc(NCc2cc(Cl)ccc2OCc2ccc(Cl)cc2Cl)cc1` [CBK078179], the “% of control remaining” value is reported as 87.9391. In the case of `CN1CCN(NC(=O)COc2ccc(Br)cc2Cl)CC1` [CBK268174], the “% of control remaining” value is reported as 92.589. In the case of `COC(=O)/C=C/c1cn(C2OC(CO)C(O)C2O)c(=O)[nH]c1=O` (stereo not shown) [CBK201339], the “% of control remaining” value is reported as 105.759. With `COc1ccc2c(c1)C1(CC(=O)N(CCOc3ccccc3)C1=O)C(=O)N2C` (stereo not shown) [CBK075168] the “% of control remaining” value was 91.9042. With `CN1C(C)(C)CC(NC(=O)c2[nH]cnc2C(=O)O)CC1(C)C` [CBK287102] the “% of control remaining” value was 84.7239. For `CCOc1ccc2ccccc2c1CNCCSc1nnnn1C` [CBK270046C], the “% of control remaining” value was 98.4843. For `O=C(c1cc(-c2ccncc2)nc2ccc(Cl)cc12)N1CCN(Cc2ccc3c(c2)OCO3)CC1` [CBK267765], the “% of control remaining” value was 108.628. For `COc1ccc2c(c1)C1(CC(=O)N(Cc3ccccc3)C1=O)C(=O)N2CCn1cnc2c1c(=O)n(C)c(=O)n2C` (stereo not shown) [CBK075478], the “% of control remaining” value was 91.4226. `COc1ccc(-c2cc(C(=O)Nc3ccccn3)cnc2-c2ccccc2)cn1` [CBK037519] was tested, and the “% of control remaining” value was 112.06. `FC(F)(F)c1nnc2ccc(N3CCN(Cc4ccsc4)CC3)nn12` [CBK305930] was tested, and the “% of control remaining” value was 87.1649. For `COCCNc1cccc(Cn2c(=O)n(C)c3c2c(=O)nc(OC)n3C)c1` [CBK022052], the “% of control remaining” value was 88.2804. In the case of `Cc1cc2ccccc2n2c(=O)n(CC(=O)N3CCCCC3C)nc12` (stereo not shown) [CBK283882], the “% of control remaining” value is reported as 88.7808. `O=C(O)c1ccccc1S(=O)(=O)CC(=O)N1CCCCC1` [CBK287180] was tested, and the “% of control remaining” value was 84.9958. For `Cc1ccc(C2CCCN2C(=O)Cn2cccc(C(=O)NCc3ccccc3)c2=O)cc1C` (stereo not shown) [CBK286074], the “% of control remaining” value was 103.671. With `CC(C)(C)CC(=O)O/N=C(\N)c1ccccn1` [CBK265779] the “% of control remaining” value was 91.288. In the case of `c1ccc2c(CCN3CCC(Oc4nccnc4OC4CCCCC4)CC3)c[nH]c2c1` [CBK082877T], the “% of control remaining” value is reported as 83.617. In the case of `Cc1cc(CNC(=O)Cn2nc(C)c(C)c2C)on1` [CBK281487], the “% of control remaining” value is reported as 90.7329. `Cc1cnc(C)c(N2CCN(c3cc([C@H]4C[C@@H](N)C4)ncn3)CC2)n1` [CBK307118] was tested, and the “% of control remaining” value was 82.695. With `CC(=O)N1CCC[C@H]2NC(=O)CNC(=O)C3(C/C=C/C[C@H]21)CCN(C(=O)C1CCC1)CC3` [CBK292177] the “% of control remaining” value was 78.3682. With `OCCN1CSC(=S)N(CCc2ccc(Cl)cc2)C1` [CBK015713] the “% of control remaining” value was 66.6686. For `Cn1c(SCc2ccc([N+](=O)[O-])cc2)nnc1-c1ccc(NC(=O)c2ccccc2Cl)cc1` [CBK265001], the “% of control remaining” value was 116.41. With `Fc1ccc(-c2cn3ccnc3c(Nc3cccc(OC(F)(F)C(F)F)c3)n2)cc1Cl` [CBK037265] the “% of control remaining” value was 101.282. With `COC(=O)c1ccc(Nc2cccc(-c3cccc(N)c3)n2)cc1OC` [CBK037619] the “% of control remaining” value was 79.6655. With `O=C(O)c1cc(S(=O)(=O)NCc2ccccc2)ccc1Br` [CBK261768] the “% of control remaining” value was 109.884. With `CCCc1[nH]nc(O)c1Cc1cccc(C)c1` [CBK075035] the “% of control remaining” value was 88.3053. With `COc1ccc(OCCCn2ccn(C(=O)CCCOc3ccc(Cl)cc3)c2=O)cc1` [CBK106662] the “% of control remaining” value was 127.102. For `CC1(C)CC(=O)C(=CNCC(N)=O)C(=O)C1` [CBK262520], the “% of control remaining” value was 83.6779. For `CCCn1ccnc1CN1CCCC(CC2CC2)(C(=O)O)C1` (stereo not shown) [CBK307205], the “% of control remaining” value was 44.9165. With `COc1ccc(C(=O)N2CCC3(CCN(Cc4cc(OC)c(OC)c(OC)c4)C3)C2)cc1OC` (stereo not shown) [CBK132149] the “% of control remaining” value was 106.945. In the case of `Cc1nc[nH]c1CN(CCCn1ccnc1)CC1CC=CCC1` (stereo not shown) [CBK283218], the “% of control remaining” value is reported as 89.2833. For `O=C(COc1cccc2ccccc12)NNC(=O)Cc1ccc(Cl)cc1` [CBK262988], the “% of control remaining” value was 83.1194. With `O=C(/C=C\c1ccc(Cl)cc1Cl)N1CCN(Cc2ccc3c(c2)OCO3)CC1` [CBK074371] the “% of control remaining” value was 0.2437. `O=C(c1ccccc1)N1C[C@H](c2ccsc2)[C@H]2CN(Cc3ccsc3)CC[C@H]21` [CBK285604] was tested, and the “% of control remaining” value was 86.5399.
